{"source": "the antibiotic and cytotoxicity screens of Wong et al. (2023)", "note": "The list shows a part of the results.", "data": [{"system": "HepG2", "test": "cytotoxicity call (relative viability < 0.9)", "settings": "10 µM", "values": [{"compound": "COc1ccc(CN(C)C[C@@H]2OCCCC[C@H](C)Oc3ccc(NC(=O)Cc4ccccc4)cc3C(=O)N([C@H](C)CO)C[C@H]2C)cc1", "cytotoxicity call": "inactive"}, {"compound": "C[C@@H]1CCCCO[C@H](CN(C)S(=O)(=O)c2ccccc2)[C@H](C)CN([C@H](C)CO)C(=O)c2cc(NC(=O)Nc3ccccc3)ccc2O1", "cytotoxicity call": "inactive"}, {"compound": "COc1ccc(S(=O)(=O)Nc2ccc3c(c2)C(=O)N([C@H](C)CO)C[C@H](C)[C@H](CN(C)S(=O)(=O)c2ccccc2)O3)cc1", "cytotoxicity call": "inactive"}, {"compound": "OCC1OC(Oc2ccc(O)cc2)C(O)C(O)C1O", "note": "(stereo unspecified)", "cytotoxicity call": "inactive"}, {"compound": "O=C1CSC(=Nc2nccs2)N1", "cytotoxicity call": "inactive"}, {"compound": "N[C@H](CSCCB(O)O)C(=O)O", "cytotoxicity call": "inactive"}, {"compound": "COc1ccc(S(=O)(=O)N(C)C[C@@H]2OCCCC[C@H](C)Oc3ccc(NS(=O)(=O)c4ccc(Cl)cc4)cc3C(=O)N([C@@H](C)CO)C[C@@H]2C)cc1", "cytotoxicity call": "active"}, {"compound": "COc1ccc(NC(=O)Nc2cccc3c2O[C@H](CN(C)Cc2ccc(Cl)c(Cl)c2)[C@H](C)CN([C@@H](C)CO)C3=O)cc1", "cytotoxicity call": "inactive"}, {"compound": "COc1ccc(S(=O)(=O)Nc2ccc3c(c2)C(=O)N([C@H](C)CO)C[C@H](C)[C@H](CN(C)C(=O)Nc2c(C)noc2C)OCCCC[C@H](C)O3)cc1", "cytotoxicity call": "inactive"}, {"compound": "COc1ccccc1NC(=O)N(C)C[C@@H]1Oc2cc(Br)ccc2S(=O)(=O)N([C@@H](C)CO)C[C@H]1C", "cytotoxicity call": "inactive"}, {"compound": "COc1ccc(NC(=O)N(C)C[C@@H]2OCCCC[C@@H](C)Oc3ccc(NC(=O)Nc4ccccc4)cc3C(=O)N([C@@H](C)CO)C[C@@H]2C)cc1", "cytotoxicity call": "inactive"}]}]}
